# In the antibiotic and cytotoxicity screens of Wong et al. (2023):
# This is one part of the list.
# Assays:
# HSkMC = human skeletal muscle cells; assay: cytotoxicity call (relative viability < 0.9); details: 10 µM
# HepG2 = assay: cytotoxicity call (relative viability < 0.9); details: 10 µM
# S. aureus RN4220 = assay: growth inhibition call (relative growth <= 0.2); details: 50 µM
SMILES,cytotoxicity call (HSkMC),cytotoxicity call (HepG2),growth inhibition call (S. aureus RN4220)
NN=C(N)N,inactive,inactive,inactive
O=P1(NCCCl)OCCCN1CCCl (centres undefined),inactive,inactive,inactive
NC(=O)c1ccc(N)nc1,inactive,active,inactive
OC[C@@H](O)Cc1ccc2c(c1)OCO2,inactive,inactive,inactive
O=C(O)C=CC(=O)O.c1ccc2nc(N3CCNCC3)ccc2c1,inactive,active,inactive
C[C@H]1CN([C@@H](C)CO)C(=O)CCCn2cc(nn2)CO[C@H]1CN(C)C(=O)Oc1cccc2ccccc12,inactive,inactive,inactive
CCCCOC(=O)C1=CC(=O)CC(C)(C)O1,inactive,active,inactive
ClC1C(Cl)C(Cl)C(Cl)C(Cl)C1Cl (centres undefined),inactive,inactive,inactive
COP(=O)(OC)C(O)C(Cl)(Cl)Cl (centres undefined),inactive,inactive,inactive
CCC(C(=O)[O-])C1CCC(C)C(C(C)C(O)C(C)C(=O)C(CC)C2OC3(C=CC(O)C4(CCC(C)(C5CCC(O)(CC)C(C)O5)O4)O3)C(C)CC2C)O1.[Na+] (centres undefined),inactive,active,active
O=[N+]([O-])c1ccc([As](=O)(O)O)cc1,inactive,inactive,inactive
CN1C(=O)C(O)N=C(c2ccccc2)c2cc(Cl)ccc21 (centres undefined),inactive,inactive,inactive
COC(=O)[C@H]1O[C@@H]2C[C@H]3O[C@@H](n4cnc5c(N)ncnc54)[C@H](OC)[C@H]3O[C@@]2(O)[C@@H](O)[C@@H]1O,inactive,inactive,inactive
CC1OC(OC2C(O)C(O)C(O)C(O)C2O)C(N)CC1NC(=N)C(=O)O.Cl (centres undefined),inactive,inactive,inactive
Cc1nnc(N2CCC[C@]3(CNCCO3)C2)o1,inactive,inactive,inactive
C=CCSSCC=C,inactive,inactive,inactive
Nc1ccc2c(c1)CNCC2,inactive,inactive,inactive
C[C@H]1[C@H](O)[C@@H](C)/C=C\C=C/CC\C=C/C=C\C=C/C=C\[C@@H](O[C@@H]2O[C@H](C)[C@@H](O)[C@H](N)[C@@H]2O)C[C@H]2O[C@@](O)(C[C@@H](O)[C@@H]2C(=O)O)C[C@@H](O)[C@@H](O)CC[C@@H](O)C[C@@H](O)C[C@@H](O)CC(=O)O[C@H]1C,inactive,inactive,inactive
CC12C=CC(=O)C=C1CCC1C2CCC2(C)C(=O)CCC12 (centres undefined),inactive,inactive,inactive
CN(C)C(=O)[C@@]1(Cc2ccccc2CN=[N+]=[N-])N=C(c2ccc(OCCCO)cc2)O[C@H]1c1ccccc1N=[N+]=[N-],inactive,active,inactive
CCCCC[C@H]1C(=O)O[C@H](C)[C@H](NC(=O)c2cccc(NC=O)c2O)C(=O)O[C@@H](C)[C@@H]1OC(=O)CC(C)C,inactive,active,inactive
CCC(C(N)=O)N1CCCC1=O (centres undefined),inactive,inactive,inactive
COc1cc2c(c(OC)c1OC)-c1ccc(O)c(=O)cc1[C@H](N)CC2,inactive,inactive,inactive
